# Source: PubChem BioAssay (Tox21)
# The shares of active, inactive and inconclusive entries below differ from those in the screen. Potencies of inconclusive entries are doubtful fits and often do not repeat. The source made the active and inactive calls. Calls follow the shape of the dose curve; as a rule, active = well fitted activation curve with a large enough effect in the signal ratio in the repeat runs (not every such curve was filed as active); inconclusive = weak or mixed curves, or effect the other way; inactive = no such curve, though single readings can be large or run the other way; the % refers to the signal ratio.
# Test: qHTS assay for small molecule agonists of the antioxidant response element (ARE) signaling pathway (AID 743202)
# Conditions: HepG2 ARE-bla reporter, beta-lactamase FRET, 16 h; activation: at 73.3 µM (top of the series) unless noted
# From the text: U.S. Tox21 Program National Center for Advancing Translational Sciences [NCATS] NIH Chemical Genomics Center [NCGC] U.S. Environmental Protection Agency [EPA] National Institutes of Environmental Health Sciences [NIEHS] National Toxicology Program [NTP] U.S. Food and Drug Administration [FDA] Tox21 Assay Overview: Oxidative stress has been implicated in the pathogenesis of a variety of diseases ranging from cancer to neurodegeneration. The antioxidant response element (ARE) signaling pathway plays an important role in the amelioration of oxidative stress. The CellSensor ARE-bla HepG2 cell line (Invitrogen) can be used for analyzing the Nrf2/antioxidant response signaling pathway. Nrf2 (NF-E2-related factor 2) and Nrf1 are transcription factors that bind to AREs and activate these genes. The CellSensor ARE-bla Hep G2 cell line contains a beta-lactamase reporter gene under control of the Antioxidant Response Element (ARE) stably integrated into HepG2 cells. The activation of the report gene under culture conditions can be detected by fluorescence intensity. This cell line has been used to screen the Tox21 10K compound library to identify agonists that induce oxidative stress.
# Tox21 Assay Protocol Summary: The ARE-bla cells were dispensed at 2,000 cells/5 ul/well in 1536-well black wall/clear bottom plates using a Multidrop dispenser. After the assay plates were incubated at a 37 C/5% CO2 incubator for 5 hours, 23 nL of compounds dissolved in DMSO, positive controls or DMSO only was transferred to the assay plate by a pin tool. The plates were incubated at 37 C for 16 hours. After 1 uL of LiveBLAzer B/G FRET substrate was added using a Flying Reagent Dispenser, the plates were incubated at room temperature for 2 hours, and fluorescence intensity was measured by an Envision plate reader.
# % is scaled to controls: 0 for no effect and ±100 for the full control effect; potency is read from the fitted curve at half-maximal effect; tags tell the direction and shape of the fitted curve.
SMILES,activation,Potency
C=C(C)C(=O)OCCOCCOCCOC(=O)C(=C)C,inconclusive: 8.93%,inconclusive: 68.7 µM
CCCOC(=O)c1ccc(N)cc1,inconclusive: 21.1%,
CC(C)(C#N)c1cc(Cn2cncn2)cc(C(C)(C)C#N)c1,,inactive
O=C(NCCO[N+](=O)[O-])c1cccnc1,inactive: 17.7%,
CC(Cl)COP(=O)(OCC(C)Cl)OCC(C)Cl (stereo unspecified),inactive: -6.67%,
COc1ccc(-c2cc(=O)c3c(O)cc(O[C@@H]4O[C@H](CO[C@@H]5O[C@@H](C)[C@H](O)[C@@H](O)[C@H]5O)[C@@H](O)[C@H](O)[C@H]4O)cc3o2)cc1O,,"inconclusive: 15 µM [rising, partial curve]"
CC1=C(CC(=O)O)c2cc(F)ccc2/C1=C\c1ccc(S(C)(=O)=O)cc1,,inconclusive: 26.6 µM
O=S(=O)(O)c1cccc2ccccc12,inconclusive: -5.02%,
CC(O)CNCC(C)O (stereo unspecified),inconclusive: -3.46%,inconclusive: 61.5 µM
CCCn1cnc2c1c(=O)n(CCCCC(C)=O)c(=O)n2C,inactive: 0.866%,
CC(=O)C(=O)O,inconclusive: 43.1%,"inconclusive: 11 µM [rising, full curve]"
OC[C@@H](O)C(O)[C@@H](O)CO (stereo partly specified),,"inconclusive: 3.1 µM [falling, partial curve, poor fit]"
CCCCCC1C(=O)CCC1CC(=O)OC (stereo unspecified),,inactive
Cc1cccc(C)c1[N+](=O)[O-],inconclusive: 57.9%,
OC(C#CCN1CCCC1)(c1ccccc1)c1ccccc1,inactive: -0.048%,
C[C@]12C(=O)OC(=O)[C@H]1[C@H]1C=C[C@@H]2C1,inactive: -9.08% [at 94.8 µM],
CC(=O)c1ccc2c(c1)N(CCCN1CCC(CCO)CC1)c1ccccc1S2,inactive: 7.69%,

SMILES,activation,Potency
O=C(O)c1c2ccccc2cc2ccccc12,inactive: 0.715%,
CC(C)(C)c1ccc(OCC2CO2)cc1 (stereo unspecified),inactive: -5.26% [at 94.8 µM],
CCCCC(CC)CCC(CC(C)C)OS(=O)(=O)O (stereo unspecified),,"inconclusive: 68.6 µM [rising, single point]"
CC(C)C(=O)OCCc1ccccc1,inactive: -6.62%,
O=C(NCCCN1CCOCC1)c1ccc(Cl)cc1,inactive: -2.9%,
O=C(OCCOCCOCCOC(=O)c1ccccc1)c1ccccc1,inactive: 12%,
CCCCC(CC)COC(=O)CS (stereo unspecified),,inactive
CCCCC(=O)O[C@]1(C(=O)CO)CC[C@H]2[C@@H]3CCC4=CC(=O)CC[C@]4(C)[C@H]3[C@@H](O)C[C@@]21C,inactive: 12%,
Cc1ccc(C#N)cc1,inconclusive: -20.4%,
C1=CCC(c2ccccc2)CC1 (stereo unspecified),inconclusive: -11.9%,
O=[N+]([O-])c1ccc(/C=C/c2ccc([N+](=O)[O-])cc2S(=O)(=O)O)c(S(=O)(=O)O)c1,,inactive
CC(C)(O)CCC(C)(C)O,inactive: 1.79% [at 94.8 µM],
CC(C)CC=O,inactive: 0.314%,
CCCCCCCCCCCCc1ccccc1,inconclusive: 18.9%,
O=C(CCCl)NCc1ccccc1,inactive: -4.74%,
F[Si-2](F)(F)(F)(F)F,inactive: -1.45%,
CCCCC(=O)O,inconclusive: 26% [at 94.8 µM],

# Same assay, conditions: HepG2 ARE-bla reporter, beta-lactamase FRET, 16 h; at 73.3 µM (top of the series)
row,SMILES,activation
1,CC(=O)C(=O)O,inactive: -2.73%
2,Cc1cccc(C)c1[N+](=O)[O-],inactive: -1.69%
3,CCCCCCCCCCCCc1ccccc1,inactive: -22.4%
4,CCCCC(=O)O,inactive: 5.26%
